Laboratory results taken from PubChem BioAssay AID1845216 (Molecular Pharmacology Branch, DTP, NCI, 2023).
For part of its entries the source gives two or more results. This is not the full list of results. An entry can have further records. Values that stand side by side repeat one measurement across runs, samples, wells, individuals or studies.

Test system: SW 982 tumor spheroid viability
Assay: Anticancer human tumor SW 982 cell line growth inhibition;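 also: spheroids exposed to compound for 7 days before readout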
Conditions: stronger effect = lower value, spheroids with HUVEC and MSC
Source text: Multicellular complex tumor spheroid response to DNA repair inhibitors in combination with DNA-damaging drugs
This study explores the anticancer activities of DNA-damaging drugs and inhibitors of DNA damage repair, both as single agents and in combinations. Complex tumor spheroids comprised of malignant cells, endothelial cells and mesenchymal stem cells served as an in vitro model for human solid tumors. This model system incorporates physiologically relevant features and patient-derived or established malignant cell lines with clinically relevant genetic alterations from many tumor types. Twenty-six patient-derived or established malignant cell lines were evaluated representing sarcoma, melanoma, small cell lung cancer (SCLC), non-small cell lung cancer (NSCLC), as well as bladder, ovarian and pancreatic cancers. The concentration ranges selected for each drug and investigational agent were based upon clinically achievable concentrations if the clinical Cmax of the agent was known.
Compounds. The drugs and compounds olaparib (NSC753686), talazoparib (NSC767125), berzosertib (NSC777718), elimusertib (NSC800525), nedisertib (NSC802822), VX-984 (NSC792969), AZD-1390 (NSC803789), temozolomide (NSC362856), topotecan (NSC609699), trabectedin (NSC813783), staurosporine (NSC755774), and gemcitabine (NSC613327) were obtained from the National Cancer Institute (NCI) Developmental Therapeutics Program Chemical Repository. The FDA-approved anticancer drug set is available from the Developmental Therapeutics Program at https://dtp.cancer.gov/organization/dscb/obtaining/available_plates.htm. […] The stock solutions were prepared in dimethyl sulfoxide (DMSO, Sigma-Aldrich, St. Louis, MO, cat. D2650) at 400-fold the tested concentration and stored at -70 degrees C. Prior to their use, the stock solutions were diluted in fresh medium and the final DMSO concentration in the assay was 0.25% (v/v). All drugs and investigational agents were tested over a range starting from a high concentration at or near the clinical Cmax and decreasing in half-log increments. If the clinical Cmax for an agent had not been determined, the highest concentration tested was 10 microM.
Cell Lines. The patient-derived cancer cell (PDC) lines: 156681-154-R-J1-PDC, 283228-195-R-J1-PDC, 287954-098-R-J1-PDC, 292921-168-R-J2-PDC, 349418-098-R-PDC, 425362-245-T-J1-PDC, 556581-035-R-J1-PDC, and BL0293-F563-PDC were received from the NCI Patient-Derived Models Repository (PDMR, https://pdmr.cancer.gov). The established cell lines HS-SY-2 (RRID:CVCL_8719), MPNST, and SYO-1 (RRID:CVCL_7146) were obtained from the Sloan Kettering Institute. The alveolar soft parts sarcoma cell line ASPS-1 (RRID:CVCL_S738) was established at the NCI and grown from internal seed stocks. […]

Structure (SMILES): COc1cc2c(cc1O)CCNC21CSC2c3c(OC(C)=O)c(C)c4c(c3C(COC1=O)N1C(O)C3Cc5cc(C)c(OC)c(O)c5C(C21)N3C)OCO4 (centres undefined)
- viability, T/C (compound 30 pM): 109, 99.2, 96, 96.9, 102, 100, 97.4, 132, 101, 92.4%
- viability, T/C (compound 94.9 pM): 97.4, 99.8, 98, 89.1, 97.7, 90.9, 95.7, 129, 89.3, 103%
- viability, T/C (compound alone 0.0003 µM): 75.9, 77.4, 77.7, 67.9, 73.5, 69.4, 86.4, 121, 87.3, 79.2%
- viability, T/C (compound alone 0.000949 µM): 35.6, 37.8, 43.9, 32.4, 34.4, 36.8, 44, 68.1, 32.2, 39.4%
